From the supplement of paper PMC3334620
Whole data set: some 33,000 sequences, median “E-score (-0.5 to 0.5)” near -0.016, cut for the highest 2% near 0.32. This is one part of the list.

Target: T1, Stp1 (UniProt B3LFK1)
T1 sequence: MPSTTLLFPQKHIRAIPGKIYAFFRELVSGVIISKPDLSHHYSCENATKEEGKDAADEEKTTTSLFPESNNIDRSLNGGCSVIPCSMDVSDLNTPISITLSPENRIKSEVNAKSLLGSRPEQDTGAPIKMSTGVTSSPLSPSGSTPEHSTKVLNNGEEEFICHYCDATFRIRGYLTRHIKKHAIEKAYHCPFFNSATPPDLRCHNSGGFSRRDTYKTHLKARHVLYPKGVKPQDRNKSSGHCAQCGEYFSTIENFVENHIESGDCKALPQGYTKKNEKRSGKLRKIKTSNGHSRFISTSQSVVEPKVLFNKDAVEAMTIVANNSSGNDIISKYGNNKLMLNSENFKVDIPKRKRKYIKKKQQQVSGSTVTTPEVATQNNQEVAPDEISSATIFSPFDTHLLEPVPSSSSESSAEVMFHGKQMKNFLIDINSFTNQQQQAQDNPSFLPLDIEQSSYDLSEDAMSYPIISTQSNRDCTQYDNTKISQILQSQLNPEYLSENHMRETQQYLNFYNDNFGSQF
Test: PBM E-score (8-mer binding enrichment) (E-score (-0.5 to 0.5)); higher = stronger / more preferred TF binding; most listed sequences are background and not binding sites
Details: protein concentration: 200 nM; construct: GST-full length
Outline: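 Masliner-normalised scans of fluorescent anti-GST signal were the basis for scoring. That signal came from GST-tagged yeast transcription factors applied at about 100-200 nM to double-stranded universal all-10-mer Agilent arrays on fresh or once-stripped slides. Each ungapped eight-base word, pooled with its reverse complement, received an E-score from the Universal PBM Analysis Suite.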

Row | Sequence | PBM E-score
1 | GCGACCGC | 0.0376
2 | ATGCCGGC | 0.0928
3 | GTGCTGGA | -0.156
4 | GAGGTTTA | -0.0882
5 | GTAATAAC | 0.0247
6 | CAGGCACA | -0.259
7 | CTAGATGA | -0.0339
8 | AGAGGTGC | -0.13
9 | ATCGGACC | -0.0999
10 | GACGCCAC | 0.0288
11 | TAGAACCA | -0.131
12 | AAGGAAGC | -0.218
13 | CCCCCAAC | -0.405
14 | GTAGCAGA | 0.0625
15 | ACCCCGCG | 0.0567
16 | ACCTCAGT | -0.0378
17 | AGTGAGTC | -0.187
18 | GCCCTTCC | 0.0531
19 | CAATTTGC | 0.00701
20 | AAGCGTTA | -0.23
21 | ATTTAGAG | 0.0639
22 | GCTGGTCA | -0.159

Row | Sequence | PBM E-score
23 | ATATGCAG | -0.116
24 | AACTGTCT | -0.237
25 | CCGTTTAG | 0.28
26 | ATGGTGGA | -0.243
27 | CCTCAAAG | -0.176
28 | AGCAGTGA | 0.134
29 | AGGGTCGA | -0.24
30 | ACCGGGGC | -0.0721
31 | CACGGTGG | -0.186
32 | GCGAAGTA | -0.0642
33 | CTTCACAA | -0.0745
34 | ATCGACAC | -0.144
35 | ACGGTGAC | -0.0841
36 | CCACGCTC | -0.157
37 | ACAATGAG | -0.234
38 | GACCGCGC | 0.123
39 | ATTCGCTG | 0.00654
40 | AACCGCTT | -0.109
41 | ATCGGGAG | -0.167
42 | CGAGAAAC | -0.00599
43 | AAGCGGAC | 0.0592
44 | AGACGGGA | -0.12

Row | Sequence | PBM E-score
45 | ATTCTCCA | 0.0478
46 | ACTTGTCT | -0.0326
47 | CCACGCCC | -0.188
48 | CCCCCACA | -0.332
49 | ACGTCGAT | 0.0713
50 | ACTAACTC | -0.271
51 | CTGATAAG | 0.129
52 | ACACTTTA | -0.0763
53 | CAATTAGC | 0.0542
54 | CCGTCATA | 0.0738
55 | ACGTTTGC | -0.0424
56 | ACAGACAT | 0.0663
57 | ACCAATCA | 0.0394
58 | GTCTTTCA | 0.0147
59 | AGGGCCCG | -0.152
60 | TACCATGA | -0.172
61 | GATAGTAC | -0.0487
62 | ATCTTTCG | -0.0513
63 | AACAGTGG | -0.126
64 | CCTACCCC | -0.368
65 | AAATCAGA | 0.168
66 | ACATAAAA | 0.172

Row | Sequence | PBM E-score
67 | CAACCTGG | -0.101
68 | CCCCGGAA | -0.321
69 | CTGCCGAC | -0.181
70 | CATGTGCG | 0.174
71 | AAATAAAT | 0.253
72 | AGTGGTGG | -0.0452
73 | CCCTGTTA | -0.00414
74 | GGCGGCAC | 0.446
75 | GAGCTGTA | -0.164
76 | CGTGCCAA | 0.11
77 | CGTCACTC | -0.119
78 | TCACGCAA | 0.215
79 | AGGGGCTA | -0.269
80 | ATGGACTC | -0.0735
81 | ACCTATAC | 0.0036
82 | ATTCAACG | 0.193
83 | ATTGTAAA | 0.179
84 | CTGGGTCA | -0.144
85 | TATAGATA | -0.142
86 | AAGCCCCC | -0.335
87 | CTAAACGC | 0.107
88 | GCATGGGC | -0.111

Row | Sequence | PBM E-score
89 | ATTTCTGA | 0.0272
90 | TACCACCA | -0.254
91 | CCCTCATA | -0.243
92 | GGGGCAAC | -0.107
93 | ATACTTAG | 0.0169
94 | GGCCTGCA | -0.324
95 | AGTTTTCG | 0.0503
96 | CCCTAAAC | -0.193
97 | CGCGAGCA | -0.204
98 | ATAGAATG | 0.253
99 | TGCTCGAA | -0.0187
100 | GTTTCTGA | -0.0379
101 | AACCAGAT | -0.141
102 | CGGGTCTC | 0.0506
103 | CGGACCAA | 0.0479
104 | GGGAGTTA | -0.169
105 | AGACTAAC | -0.119
106 | ACCGTAAC | 0.0376
107 | CATGCCGA | 0.188
108 | CATTAGGC | -0.0536
109 | ATACTCAA | 0.103
